# Results reported in paper PMC4336329 (PLoS ONE, 2015).
# Out of some 310,000 compounds screened, about 2,200 (0.71%) showed an effect of 50% or more. Effects have a minus sign here. This is one part of the list.
# Target: human ether-à-go-go-related gene (hERG) potassium channel (human, UniProt Q12809)
# Experiment: primary screen, population patch clamp on CHO cells stably expressing hERG
# Chain of human ether-à-go-go-related gene (hERG) potassium channel (Q12809 whole entry, looked up): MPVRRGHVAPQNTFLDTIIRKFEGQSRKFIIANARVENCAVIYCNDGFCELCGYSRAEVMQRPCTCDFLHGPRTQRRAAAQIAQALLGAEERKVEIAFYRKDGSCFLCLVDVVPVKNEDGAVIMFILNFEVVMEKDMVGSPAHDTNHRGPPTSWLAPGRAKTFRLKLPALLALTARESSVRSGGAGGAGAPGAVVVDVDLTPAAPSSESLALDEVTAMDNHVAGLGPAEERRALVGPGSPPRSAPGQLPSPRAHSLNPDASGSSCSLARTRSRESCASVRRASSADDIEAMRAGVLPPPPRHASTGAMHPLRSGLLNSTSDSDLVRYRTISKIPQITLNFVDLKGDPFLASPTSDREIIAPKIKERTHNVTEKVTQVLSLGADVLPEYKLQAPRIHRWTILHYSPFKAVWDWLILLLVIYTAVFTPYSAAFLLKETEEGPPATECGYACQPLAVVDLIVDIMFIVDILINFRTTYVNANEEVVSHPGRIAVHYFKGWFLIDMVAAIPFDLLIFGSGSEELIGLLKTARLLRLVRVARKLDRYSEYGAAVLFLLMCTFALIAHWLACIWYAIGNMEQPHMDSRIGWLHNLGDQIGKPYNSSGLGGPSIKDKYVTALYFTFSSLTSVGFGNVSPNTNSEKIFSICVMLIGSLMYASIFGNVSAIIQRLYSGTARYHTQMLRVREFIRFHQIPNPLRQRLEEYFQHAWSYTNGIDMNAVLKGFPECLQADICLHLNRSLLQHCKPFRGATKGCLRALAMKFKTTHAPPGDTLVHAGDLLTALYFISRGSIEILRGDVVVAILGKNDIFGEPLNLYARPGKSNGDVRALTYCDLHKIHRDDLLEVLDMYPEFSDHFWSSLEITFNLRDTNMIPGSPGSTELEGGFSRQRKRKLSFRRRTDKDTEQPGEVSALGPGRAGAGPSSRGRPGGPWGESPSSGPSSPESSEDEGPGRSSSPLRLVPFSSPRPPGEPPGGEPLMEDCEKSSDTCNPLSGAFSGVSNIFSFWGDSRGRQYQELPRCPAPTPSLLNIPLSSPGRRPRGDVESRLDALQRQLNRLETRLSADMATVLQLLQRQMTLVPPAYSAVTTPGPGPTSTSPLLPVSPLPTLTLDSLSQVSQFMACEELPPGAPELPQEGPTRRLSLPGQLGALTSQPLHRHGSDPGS
row,Compound,"hERG current change (%, negative = inhibition) at 1uM [%]"
1,CCOC(=O)c1c(NC(=O)COc2ncnc3sccc23)sc2c1CCC2,21.6
2,COC(=O)c1ccc(N2CCOCC2)c(NC(=O)c2ccc(Br)o2)c1,13.8
3,Cc1ccc(NC(=O)Cn2c(O)c(N=NC(N)=S)c3ccccc32)cc1,13.7
4,CC1CN=C(NCc2ccncc2)S1 (stereo not drawn),11.1
5,CCOc1ccccc1C(=O)NCC(=O)NNC(=O)c1cccc(S(=O)(=O)Nc2ccc(OC)cc2)c1,8.96
6,Cc1ccc(CC(=O)O/N=C(\N)c2ccncc2)cc1,15.3
7,CCC(=O)N1c2ccccc2NC2=C(C(=O)CCC2)C1c1ccccc1 (stereo not drawn),14
8,O=C(Nc1nn[nH]n1)c1cc(-c2ccc(Cl)c(Cl)c2Cl)nc2ccccc12,20.8
9,COc1ccnc2c1c(=O)n(Cc1cccc(F)c1)c(=O)n2C,8.91
10,C/C=C(\C)CN1CCN(c2ccccc2)CC1,7.34
11,CC12CCC(=O)N1C(C(=O)Nc1ccc(Cl)c(Cl)c1)CS2 (stereo not drawn),-0.234
12,Cc1ccccc1OCC(=O)Nc1nnc(-c2ccncc2)s1,9.52
13,Cc1cc(C(F)F)n2ncc(C(=O)NC3CCCCCC3)c2n1,8.73
14,CC(CCN1CCN(c2ccccc2)CC1)c1ccccc1.Cl (stereo not drawn),-1.29
15,N#Cc1ccccc1Cn1c(-c2cscn2)nc2ccccc21,-0.0773
16,COCCN1CCN(C(=O)C2CCC(=O)N(CCc3ccc(Cl)cc3)C2)CC1 (stereo not drawn),8.76
17,Cc1[nH]n(-c2nc(-c3ccccc3)cc(=O)[nH]2)c(=O)c1CCO,5.84
18,Cc1cc2c(Nc3ccc(O)cc3)ncnc2s1.Cl,12.7
19,O=C1c2ccccc2C(=O)N1CCc1nc(-c2cccnc2)no1,7.12
20,Nc1ncc(Br)cc1S(=O)(=O)Nc1ccccc1F,15.1
21,CC(=O)NC(CCS(C)(=O)=O)C(=O)Nc1c(C)cccc1C (stereo not drawn),6.33
22,COc1ccc2c(c1)c(/C=N/Nc1ccc(C(=O)O)cc1)c(C)n2C,18.3
23,Cc1cc(NCCCN2CCOCC2)n2ncc(-c3ccc(Cl)cc3)c2n1,12.8

row,Compound,"hERG current change (%, negative = inhibition) at 1uM [%]"
1,Cn1c(=O)c2c3c(sc2n2c(SCC(N)=O)nnc12)CC(C(C)(C)C)CC3 (stereo not drawn),8.14
2,CCOC(=O)C(=CNc1cscc1S(=O)(=O)C(C)C)C(=O)OCC,13.8
3,CCN(CC)C(=O)C1CCC(CNS(=O)(=O)c2cccc3cccnc23)CC1 (stereo not drawn),9.13
4,COC(=O)c1ccccc1NC(=S)NC(=O)COc1ccccc1Cl,-7.19
5,CCOc1ccc(OCCn2c(=S)[nH]c3c(N)ncnc32)cc1,10.3
6,CCOc1ccc(N2C(=O)c3ccc(C(=O)OCc4c(C)noc4C)cc3C2=O)cc1,9.07
7,CCOCCCn1c(SCC(=O)NC2CCCC2)nc2ccccc2c1=O,7.96
8,CNC(=O)COc1ccc2oc3c(c2c1)CCCC3,12.7
9,COc1ccc(C(=O)OCC(=O)Nc2ccc3[nH]c(=O)[nH]c3c2)cc1,3.04
10,CCN1C(=O)C(=Cc2ccc(N3CCOCC3)o2)C(=O)N(CC)C1=S,11.8
11,Cc1cc(C)cc(OCC(O)CN2CCN(C(=O)c3ccco3)CC2)c1 (stereo not drawn),6.18
12,O=C(NCc1ccc2c(c1)OCO2)C1CCCN1C(=O)Nc1ccccc1 (stereo not drawn),7.05
13,COc1cc(CN2CC(C)OC(C)C2)cc(OC)c1 (stereo not drawn),-2.68
14,Cc1ccc(N2C(N)=C(C#N)C(c3cccs3)C3=C2CC(C)(C)CC3=O)cc1 (stereo not drawn),5.24
15,CCOc1ccc(-c2cccc(NS(=O)(=O)c3cc([N+](=O)[O-])ccc3C)c2)nn1,-4.18
16,Cc1cc(C)c2nc(C)cc(Nc3ccc(C(=O)N4CCOCC4)cc3)c2c1,2.81
17,CN(C)CC1CSCCC1(O)c1ccccc1.Cl (stereo not drawn),4.1
18,O=C(Nc1ncn[nH]1)c1ccc([N+](=O)[O-])cc1[N+](=O)[O-],18.3
19,CN(C(=O)c1ccc2c(=O)n3c(nc2c1)CCCCC3)c1ccccc1,9.35
20,Clc1ccc(/C=N/Nc2ccccn2)cc1,16.6
21,O=S(=O)(Cc1ccccc1)Nn1cnnc1,13.3
22,CCN1CCN(CCCNC(=O)c2ccc3c(Cl)c4c(nc3c2)CCCC4)CC1,-8.96
